The antibiotic and cytotoxicity screens of Wong et al. (2023)
The other results are listed elsewhere or left out.

Key:
[1] = test system: HSkMC (human skeletal muscle cells); test: cytotoxicity call (relative viability < 0.9); details: 10 µM
[2] = test system: HepG2; test: cytotoxicity call (relative viability < 0.9); details: 10 µM
[3] = test system: S. aureus RN4220; test: growth inhibition call (relative growth <= 0.2); details: 50 µM

CN1CC2(COC2)OCCS1(=O)=O
inactive: cytotoxicity call [1] | cytotoxicity call [2] | growth inhibition call [3]

CC(=O)N1[C@H](C(=O)N2CCc3ccccc3C2)[C@@H](CO)[C@@H]2Cn3c(cccc3=O)[C@@H]21
inactive: cytotoxicity call [1] | cytotoxicity call [2] | growth inhibition call [3]

O=C(NO)c1ccc(C(=O)N/N=C/[C@H](O)[C@H](O)[C@@H](O)[C@@H](O)CO)cc1
inactive: cytotoxicity call [1] | cytotoxicity call [2] | growth inhibition call [3]

CC(=O)N[C@H](Cc1ccc2ccccc2c1)C(=O)N[C@H](Cc1ccc(Cl)cc1)C(=O)N[C@H](Cc1cccnc1)C(=O)N[C@@H](CO)C(=O)N[C@@H](Cc1ccc(O)cc1)C(=O)N[C@H](CCCNC(N)=O)C(=O)N[C@@H](CC(C)C)C(=O)N[C@@H](CCCNC(=N)N)C(=O)N1CCC[C@H]1C(=O)N[C@H](C)C(N)=O
inactive: cytotoxicity call [1] | cytotoxicity call [2] | growth inhibition call [3]

C=CCOC(=O)[C@@H]1[C@H]2C(=O)O[C@H](c3ccccc3)[C@H](c3ccccc3)N2[C@H](c2ccc(OCCOC(=O)[C@@H]3C[C@@H]4C(=O)N[C@@H](CC(C)C)C(=O)N4[C@@H]3c3ccc(O)cc3)cc2)[C@@]12C(=O)Nc1ccc(I)cc12
inactive: cytotoxicity call [1] | cytotoxicity call [2] | growth inhibition call [3]

CC(C)NC(=O)N(C)C[C@@H]1Oc2cc(C#Cc3ccc(F)cc3)ccc2S(=O)(=O)N([C@@H](C)CO)C[C@@H]1C
inactive: cytotoxicity call [1] | cytotoxicity call [2] | growth inhibition call [3]

COc1ccc(NC(=O)N(C)C[C@H]2OCCCC[C@@H](C)Oc3ccc(NC(=O)Cc4ccccc4)cc3C(=O)N([C@H](C)CO)C[C@@H]2C)cc1
inactive: cytotoxicity call [1] | cytotoxicity call [2] | growth inhibition call [3]

C[C@@H]1CN([C@H](C)CO)C(=O)c2cc(N(C)C)ccc2O[C@@H](C)CCCCO[C@H]1CN(C)S(=O)(=O)c1cn(C)cn1
inactive: cytotoxicity call [1] | cytotoxicity call [2] | growth inhibition call [3]

C=CC(=O)Nc1ccc([C@@H](CCc2ccc(OC)c(OC)c2)OC(=O)[C@@H]2CCCCN2C(=O)C(=O)C(C)(C)CC)cc1
inactive: cytotoxicity call [1] | cytotoxicity call [2] | growth inhibition call [3]

NCC[C@H]1CC[C@H](NC(=O)Nc2ccc(F)cc2)[C@H](CO)O1
inactive: cytotoxicity call [1] | cytotoxicity call [2] | growth inhibition call [3]

Cc1noc(C)c1S(=O)(=O)Nc1ccc2c(c1)C(=O)N([C@H](C)CO)C[C@H](C)[C@H](CN(C)S(=O)(=O)c1c(C)noc1C)O2
inactive: cytotoxicity call [1] | cytotoxicity call [2] | growth inhibition call [3]

C[C@H]1CCCCO[C@H](CN(C)Cc2ccc(C(=O)O)cc2)[C@@H](C)CN([C@@H](C)CO)C(=O)c2cc(NC(=O)c3ccccc3)ccc2O1
inactive: cytotoxicity call [1] | cytotoxicity call [2] | growth inhibition call [3]

C[C@@H]1CN([C@@H](C)CO)C(=O)c2cc(NS(=O)(=O)c3cccs3)ccc2O[C@@H](C)CCCCO[C@@H]1CN(C)C(=O)Nc1ccc(C(F)(F)F)cc1
inactive: cytotoxicity call [1] | cytotoxicity call [2] | growth inhibition call [3]

C[C@@H]1CCCCO[C@@H](CN(C)Cc2ccncc2)[C@@H](C)CN([C@H](C)CO)C(=O)c2cc(NS(=O)(=O)c3ccc(Cl)cc3)ccc2O1
inactive: cytotoxicity call [1] | cytotoxicity call [2] | growth inhibition call [3]

Cc1ccc(S(=O)(=O)N(C)C[C@H]2OCCCC[C@H](C)Oc3ccc(NC(=O)c4ccccc4)cc3C(=O)N([C@@H](C)CO)C[C@H]2C)cc1
inactive: cytotoxicity call [1] | cytotoxicity call [2] | growth inhibition call [3]

C[C@H]1CN([C@@H](C)CO)C(=O)c2cc(NS(=O)(=O)c3cn(C)cn3)ccc2O[C@@H]1CN(C)Cc1ccccc1
inactive: cytotoxicity call [1] | cytotoxicity call [2] | growth inhibition call [3]

COc1ccc(NC(=O)N(C)C[C@H]2Oc3c(NC(=O)c4ccc(-c5nccs5)cc4)cccc3C(=O)N([C@@H](C)CO)C[C@@H]2C)cc1
inactive: cytotoxicity call [1] | cytotoxicity call [2] | growth inhibition call [3]

COc1ccc(NC(=O)Nc2ccc3c(c2)[C@@H]2C[C@@H](CC(=O)NCc4ccccn4)O[C@@H](CO)[C@@H]2O3)cc1
inactive: cytotoxicity call [1] | cytotoxicity call [2] | growth inhibition call [3]

CCCNC(=O)[C@@H]1c2ccccc2C(=O)N(Cc2cc(C(F)(F)F)cc(C(F)(F)F)c2)[C@H]1c1ccc(CO)cc1
inactive: cytotoxicity call [1] | cytotoxicity call [2] | growth inhibition call [3]

C[C@@H]1CCCCO[C@H](CN(C)S(=O)(=O)c2cn(C)cn2)[C@@H](C)CN([C@@H](C)CO)C(=O)c2cc(NC(=O)Nc3cccc4ccccc34)ccc2O1
inactive: cytotoxicity call [1] | cytotoxicity call [2] | growth inhibition call [3]

C[C@@H]1CCCCO[C@@H](CN(C)S(=O)(=O)c2ccc(Cl)cc2)[C@H](C)CN([C@@H](C)CO)C(=O)c2cc(NC(=O)NC3CCCCC3)ccc2O1
inactive: cytotoxicity call [1] | cytotoxicity call [2] | growth inhibition call [3]

C[C@H](O)C#Cc1cnc2c(c1)C(=O)N([C@H](C)CO)C[C@H](C)[C@@H](CN(C)C(=O)CN1CCOCC1)O2
inactive: cytotoxicity call [1] | cytotoxicity call [2] | growth inhibition call [3]
